Test results: article PMC4336329 (PLoS ONE, 2015)
About 2,200 (0.71%) of roughly 310,000 compounds showed an effect of 50% or more. Effects have a minus sign here. Some of the results follow.

The molecules below were run against human ether-à-go-go-related gene (hERG) potassium channel (human, UniProt Q12809) (assay: primary screen, population patch clamp on CHO cells stably expressing hERG).
human ether-à-go-go-related gene (hERG) potassium channel, sequence (Q12809 whole entry, looked up): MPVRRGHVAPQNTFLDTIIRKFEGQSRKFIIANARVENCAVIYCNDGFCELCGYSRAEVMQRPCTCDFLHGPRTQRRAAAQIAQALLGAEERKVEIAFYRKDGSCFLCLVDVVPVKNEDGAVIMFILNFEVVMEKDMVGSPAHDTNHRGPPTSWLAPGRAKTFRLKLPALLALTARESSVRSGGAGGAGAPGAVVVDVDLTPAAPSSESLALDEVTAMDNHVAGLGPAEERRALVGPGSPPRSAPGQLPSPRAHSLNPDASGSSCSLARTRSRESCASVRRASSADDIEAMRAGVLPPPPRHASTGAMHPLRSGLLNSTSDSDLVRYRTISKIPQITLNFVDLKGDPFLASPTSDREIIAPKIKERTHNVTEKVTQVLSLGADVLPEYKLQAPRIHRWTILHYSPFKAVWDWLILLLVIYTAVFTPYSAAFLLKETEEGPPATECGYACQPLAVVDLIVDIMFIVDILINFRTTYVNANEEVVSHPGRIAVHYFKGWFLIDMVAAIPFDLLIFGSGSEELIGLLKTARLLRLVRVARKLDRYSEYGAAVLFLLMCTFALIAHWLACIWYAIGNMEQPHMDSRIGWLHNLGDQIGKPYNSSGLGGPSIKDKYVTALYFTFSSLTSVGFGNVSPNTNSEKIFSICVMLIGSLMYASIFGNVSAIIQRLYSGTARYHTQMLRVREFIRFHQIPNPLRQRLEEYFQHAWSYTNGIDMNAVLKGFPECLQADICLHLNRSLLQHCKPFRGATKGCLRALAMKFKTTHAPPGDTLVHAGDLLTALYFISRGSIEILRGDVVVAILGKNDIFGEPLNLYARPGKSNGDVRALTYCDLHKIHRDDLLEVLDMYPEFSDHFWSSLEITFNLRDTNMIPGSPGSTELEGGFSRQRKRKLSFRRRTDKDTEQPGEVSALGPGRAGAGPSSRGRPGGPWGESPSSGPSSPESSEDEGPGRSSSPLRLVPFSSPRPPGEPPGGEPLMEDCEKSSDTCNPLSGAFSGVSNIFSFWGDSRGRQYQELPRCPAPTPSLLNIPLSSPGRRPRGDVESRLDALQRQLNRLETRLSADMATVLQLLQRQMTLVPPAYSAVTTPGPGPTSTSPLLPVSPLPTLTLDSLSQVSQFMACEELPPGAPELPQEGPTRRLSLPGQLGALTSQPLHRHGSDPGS

SMILES	hERG current change (%, negative = inhibition) at 1uM
CCn1c(SCC(=O)N/N=C/C(C)=C/c2ccco2)nnc1-c1ccccc1	-18.7%
COc1ccc(/C=N/N2C(=O)CN(C(=O)c3ccccc3)C2c2ccc(OC)cc2)cc1 (stereo not drawn)	10.2%
Cc1c(S(=O)(=O)NC(C)c2ccccc2)c(=O)n(C)c(=O)n1C (stereo not drawn)	9.89%
CCN(CC)CCN(CC(=O)Nc1c(C)cc(C)cc1C)C(=O)c1ccccc1.O=C(O)/C=C/C(=O)O	3.87%
COc1ccc(-c2[nH]ncc2CNC(C)CCn2cccn2)c(F)c1 (stereo not drawn)	11.2%
Cc1ccc(NC(=O)C2C3C=CC4(O3)C2C(=O)N(CCCN2CCCC(C)C2)C4C(=O)NC2CCCCC2)cc1 (stereo not drawn)	14.1%
CCOc1cc(C(N)=O)cc(Cl)c1OCC	12.4%
COc1cc(C(=O)NCCC(=O)NCCc2ccc(Cl)cc2)cc(OC)c1OC	8.3%
O=C(O)COc1ccc(NC(=O)c2ccc3c(c2)C(=O)N(C2CCCCC2)C3=O)cc1	19.2%
CCOC(=O)C1(Cc2ccccc2)CCN(Cc2cn(CC(=O)OC)c3ccccc23)CC1	-34.7%
FC(F)(F)c1ccccc1C1=CC(c2ccccc2)n2ncnc2N1 (stereo not drawn)	3.86%
O=C(NCCCN1CCOCC1)C(C(=O)c1ccccc1)n1ccccc1=O (stereo not drawn)	13.2%
CC(C)CNC(=O)CN1C(=O)NC(Cc2c[nH]c3ccccc23)C1=O (stereo not drawn)	7.76%
CC(OC(=O)C1CCN(c2ccc(C(F)(F)F)cn2)CC1)C(=O)c1ccccc1 (stereo not drawn)	9.37%
COc1nc(OC)nc(N2CCC(C(=O)NCC3CCCCC3)CC2)n1	-16.3%
CC[n+]1ccc(C)c2cc(P(=O)(c3ccccc3)c3ccccc3)ccc21.[I-]	13.9%
CCCc1nn(C)c(C(=O)Nc2ccc3ccccc3c2)c1Cl	5.07%
Cc1cc(OCC(O)CN2CCCC2)cc(C)c1Cl.Cl (stereo not drawn)	-0.624%
CCn1nc(C(=O)Nc2ccc3nc(C)sc3c2)c2ccccc2c1=O	-3.48%
CCCCNC(=S)N1CCN(c2nc3ccccc3s2)CC1	10.4%
C[C@H]1CN=C(Nc2ccccc2)N1CCc1ccc(F)cc1	-4.11%
O=[N+]([O-])c1ccc(NCCCN2CCOCC2)c(Cl)c1	1.78%
COc1ccc(CCNC(=O)CNC(=O)c2ccc3c(c2)OCO3)cc1OC	16.5%

SMILES	hERG current change (%, negative = inhibition) at 1uM
O=c1oc2c3c4c(cc2s1)CCCN4CCC3	2.25%
Cc1ccc(C(=O)NCCN2C3=NC[C@H](Cc4ccc(O)cc4)N3C[C@H]2Cc2ccc(O)cc2)cc1Br	-9.94%
O=C(CCc1nnc(C2(c3ccc(Cl)cc3)CCC2)o1)N1CCCC(O)C1 (stereo not drawn)	8.81%
O=C(O)CSCC(=O)Nc1ccc(C(F)(F)F)cc1	11.9%
CC(=O)N1CCN(c2ncnc3sc(-c4ccccc4)cc23)CC1	-7.28%
CNC(=O)COC(=O)c1ccc(OCC(=O)Nc2ccccc2OC)c(OC)c1	9.43%
COc1ccc(Cn2c(=O)n(Cc3ccco3)c(=N)c3c4c(sc32)COC(C)(C)C4)cc1	-2.68%
CC(C)Nc1nc(SCC(=O)Nc2ccccc2)nc(N2CCOCC2)n1	-1.53%
Cl.OC(CNCc1ccncc1)c1ccccc1 (stereo not drawn)	11.9%
CC(=O)Nc1cccc2c1C(=O)N(c1ccc(OC(C)=O)cc1)C2=O	13.3%
COc1ccc(C(NC(=O)c2ccco2)c2ccc(OC)c(OC)c2)cc1OC	2.92%
Cc1ccc(-c2nc(-c3ccccn3)no2)cc1	-7.16%
O=C(Cn1nnc2ccccc2c1=O)N[C@@H](Cc1c[nH]c2ccccc12)C(=O)O	11.6%
COc1ccc(C(=O)Oc2ccc3ccc(=O)oc3c2)cc1OC	17%
CNC(=O)c1c2c(nc3ccc(Br)cc13)CCCC2	9.1%
CN1C=CC=C/C1=C1\SC(=S)N(c2ccccc2)C1=O	10.7%
O=C(NCCc1ccccc1)c1ccc2nc(-c3ccco3)c(-c3ccco3)nc2c1	7.25%
Fc1ccc(CSc2nc3ccccc3[nH]2)c2ccccc12	9.24%
COc1cc(C(=O)OCCCN2CCOCC2)ccc1O	4.79%
Cc1cccc(NC(=O)CSCc2cc(=O)n3c(C)csc3n2)c1C	5.73%
CC1CCN(C(=O)c2ccc(-n3cnnn3)cc2)CC1	-29.3%
Cc1cccc(NC(=O)c2ccc(S(=O)(=O)N3CCCCC3)cc2)c1	12.5%
Fc1ccc(-c2nnc(SCc3cccnc3)o2)cc1	11.6%

SMILES	hERG current change (%, negative = inhibition) at 1uM
O=C(Nc1nnc(-c2cccnc2)o1)c1cccc([N+](=O)[O-])c1	13.1%
CC(=O)N1[C@H](C)C=C[C@]1(Cc1ccccc1)C(=O)O	14.3%
CC1(C)C(c2ccco2)=[N+]([O-])C2(CCCCC2=O)N1O (stereo not drawn)	17%
Cc1ccc(NC(=O)COC(=O)[C@H](C)NC(N)=O)c(C)c1	11.1%
COc1ccc(C2=NN(C(=O)CSc3nc(=O)n4cc(C)ccc4n3)C(c3ccc(C)cc3)C2)cc1 (stereo not drawn)	6.83%
O=C(Nc1cc(Cl)cc(Cl)c1)c1cccc(OC(F)F)c1	0.757%
COc1ccc(C(=O)Nc2c(N)nc(SCC(=O)Nc3ccc(NC(C)=O)cc3)[nH]c2=O)cc1	14.8%
Cc1cccn2c(=O)nc(SCC(=O)N3CCCCC3)nc12	-3.48%
Cn1c(=O)cc(OCC(=O)NCc2cccnc2)c2ccccc21	7.35%
Cc1ccc(NC(=O)CSc2nc(=O)n(CCCN3CCOCC3)c3c2CCCC3)cc1F	0.67%
NNC(=O)c1cc(-c2cccs2)nc2ccccc12	8.74%
O=C(c1ccccc1)N1CCN(S(=O)(=O)N2CCOCC2)CC1	12.1%
Cc1cc(C)nc(SCc2ccc3nonc3c2)n1	-0.492%
CCOc1ccc(/C=N/OCC(=O)NCc2ccc3c(c2)OCO3)cc1OC	24.3%
O=C(Nc1cccc2c1CCCC2)C1CCN(c2nnnn2-c2ccccc2)CC1	0.576%
CCSc1oc(-c2ccco2)nc1S(=O)(=O)c1ccc(C)cc1	12.8%
Cc1c(Br)c(O)c(Br)c2sc(=O)oc12	15.4%
O=C(Nc1cccc(C(F)(F)F)c1)c1cnc2n(c1=O)CCS2	5.1%
COCCCN1C(=O)N(c2ccc(F)cc2)C(=O)C1CC(=O)Nc1ccccc1 (stereo not drawn)	10.2%
CCc1cccc(CC)c1NC(=O)COC(=O)C1(c2ccc(Cl)cc2)CCCC1	14.9%
CCCC(=O)c1c(NC(C)C)cc(C)oc1=O	5.86%
CC(C)(C)NCCOCCOc1ccc(Cl)cc1C(C)(C)C.O=C(O)C(=O)O	10.2%
CCOCCCNc1ccc(N2C(=O)CCCC2=O)cc1[N+](=O)[O-]	5.65%

SMILES	hERG current change (%, negative = inhibition) at 1uM
COc1ccc(C)cc1S(=O)(=O)Nc1ccc(F)c(Cl)c1	5.7%
O=c1oc(-c2ccccc2)nc2c1C1(CCCCC1)Cc1ccccc1-2	8.31%
CCOc1cc(C2C(C(=O)N3CCCCC3)=C(C)NC3=C2C(=O)CC(C)(C)C3)ccc1O (stereo not drawn)	1.34%
COc1cccc(N2CCN(c3nc(C)c(C)c(=O)[nH]3)CC2)c1	12.3%
CCc1nnc(NC(=O)CSc2ccc(-c3ccc(-n4cccn4)cc3)nn2)s1	10.4%
Cc1cc(C)c2nc(SCCC#N)nc(C)c2c1	-1.98%
O=C(c1ccccc1)c1nc[nH]c1C(=O)Nc1ccccn1	15.7%
S=C(NCCCN1CCOCC1)Nc1ccc(Cl)c(Cl)c1	-2.66%
Cc1ccc(C(=O)CSc2ccccn2)cc1	8.35%
CS(=O)(=O)N(CCc1ccccc1)CC(=O)NCc1ccccc1Cl	6%
Cc1oc(-c2cccc(Cl)c2)nc1CN(C)C1CCOC1 (stereo not drawn)	7.9%
O=C(NCc1cc(C(F)(F)F)cc(C(F)(F)F)c1)C1CC(c2ccccc2C(F)(F)F)=NO1 (stereo not drawn)	4.14%
NC(N)=Nc1nc2ccc(Cl)cc2c(=O)[nH]1	11.7%
COc1cccc(-c2cc(N3C(=O)Nc4ccccc4N3O)n[nH]2)c1	9.7%
Cn1cc(C(c2ccccc2OCC(=O)O)c2cn(C)c3ccccc23)c2ccccc21	-1.93%
NC(=O)C1CCN(C(=O)c2ccco2)CC1	12.3%
Cc1ccccc1-c1nc2ccc(Cl)cc2c(=O)n1O	15.4%
CC(=O)c1cccc(NC(=O)c2ccc(NS(=O)(=O)c3c(C)noc3C)cc2)c1	11.8%
O=C(Nc1nnc(C2CC2)s1)C1CCCO1 (stereo not drawn)	12.4%
O=S(=O)(NCc1ccco1)c1ccc(S(=O)(=O)N2CCCCC2)cc1	-8.78%
COc1ccc(OC)c(NC(=O)COC(=O)Cn2nnc(-c3ccccc3)n2)c1	10.2%
